Hit rate of the full screen: of about 46,000 compounds, about 60 (0.1%) were called active. Not shown: some 3% with an inconclusive outcome. Calls follow the shape of the dose curve; as a rule, active = well fitted inhibition curve with a large enough effect; inconclusive = small, poorly fitted or top-dose-only effect; inactive = no such curve, though single readings can be large or run the other way. This is one part of the list.
assay: Primary qHTS assay for Inhibitors of ovarian cancer metastasis using an organotypic tumor microenvironment (TME) model.; also: nearly all actives have a fitted effect of over 65% in size;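 as to activity change, negative = inhibition: plate controls were DMSO wells for no effect and tomatine positive control wells for full effect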; conditions: SKOV3ip1-GFP adhesion/invasion on 3D omental model, fluorescence; series mostly up to 45.8 µM; activity change, negative = inhibition: at the top concentration
Procedure, shortened: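 Primary human omental fibroblast/mesothelial 3D culture pre-formed 48 h. SKOV3ip1-GFP cells added with compounds (0.36-46 umol/L), incubated 2 h RT/16 h 37 C, fixed; GFP cells quantified at 488/509 nm.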

Activity change, negative = inhibition, inactive:
CCc1cccc(C)c1NS(=O)(=O)c1cc2[nH]c(=O)c(=O)[nH]c2cc1C 10.8%
CCOC(=O)c1sc(NC(=O)/C=C/c2ccc(C(C)C)cc2)c(C(=O)OCC)c1C -2.04%
Cc1ccc(C)c(NC(=O)CC2NCCNC2=O)c1 (configuration not stated) 15.4%
COc1ccc(N(C(=O)c2ccc(OC)c(OC)c2)S(=O)(=O)c2ccc(Cl)cc2)cc1 0.314%
COc1cccc(NC(=O)CSc2nnc3scc(-c4ccc(Cl)cc4)n23)c1 2.14%
Cc1cc(NS(=O)(=O)c2ccc(NC(=O)c3ccccc3C)cc2)nc(C)n1 2.12%
CCc1ccc(NCc2cc3cc4c(cc3n(CC(=O)Nc3cccc(OC)c3)c2=O)OCO4)cc1 7.42%
COCCNC(=O)Cn1nc(C)c2c(C)n(-c3ccc(C)cc3)nc2c1=O -5.64%
CCc1nnc(SCC(=O)Nc2ccccc2Cl)nc1CC -7.87%
Cc1csc2nc(COC(=O)c3cccc(NC(=O)COc4ccc(Cl)cc4)c3)cc(=O)n12 -1.01%
CCCC(C(=O)NCc1cccc(Cl)c1)N1Cc2ccccc2C1=O (configuration not stated) 14.9%
Cc1ccn2c(=O)cc(COc3ccc(NC(=O)COc4ccc(Cl)cc4)cc3)nc2c1 9.65%
N#Cc1ccccc1Cn1c(=O)n(CCCC(=O)NCc2ccc3c(c2)OCO3)c(=O)c2sccc21 -10.8%
O=C(Nc1cccc(C(=O)OCc2cc(=O)n3nc(C4CC4)sc3n2)c1)c1cccc(F)c1 2.61%
COc1cc2c(cc1OC)C(c1ccc(F)cc1)N(c1cccc(C#N)c1)C(=O)C2 (configuration not stated) 3.76%
Cc1ccc(CCNC(=O)C(NS(=O)(=O)c2ccc3c(c2)oc(=O)n3C)C(C)C)cc1 (configuration not stated) -7.35%
CCOC(=O)CSc1ccc2nnc(CCNS(=O)(=O)c3ccccc3)n2n1 -4.07%
Cc1ccc(N(CC(=O)N2CCN(c3ccccc3F)CC2)S(=O)(=O)c2c(C)noc2C)cc1 7.31%
Cc1ccc(N(CC(=O)Nc2cccc(F)c2)S(=O)(=O)c2cccs2)cc1 -3.82%
COc1ccc(NC(=O)CSc2nncn3c2cc2oc(C)cc23)cc1OC -4.99%
Cn1c(=O)c(=O)n(C)c2cc(S(=O)(=O)N3CCCC3C(=O)Nc3ccccc3F)ccc21 (configuration not stated) 3.67%
COc1cc2c(cc1OC)C(COc1ccc3c(C)cc(=O)oc3c1)N(C(=O)c1cccc(C)c1)CC2 (configuration not stated) 4.37%
COc1ccc(Cn2ccn(Cc3cccc(C)c3)c(=O)c2=O)cc1 -0.907%
CCOc1ccc(-n2c(SCC(=O)NCC3CCCO3)nc3c([nH]c4ccccc43)c2=O)cc1 (configuration not stated) -19.1%
COCCCNC(=O)CCC(=O)N1Cc2cccc(OC)c2Oc2ncccc21 -2.12%
CC(=O)N1CCCc2cc(S(=O)(=O)N3CCC(C(=O)NC4CCC(C)CC4)CC3)ccc21 (configuration not stated) 7.81%
CC1(C(=O)Nc2cccc(Br)c2)Cc2ccccc2C(=O)O1 (configuration not stated) -0.836%
CCc1ccc(NC(=O)CSc2nccn2-c2ccc(OC)cc2)cc1 -4.9%
CNC(=O)C1CCC(Cn2c(=O)c3sccc3n(Cc3ccc(F)cc3)c2=O)CC1 (configuration not stated) 3.65%
CCn1c(C(=O)NCc2ccccc2C)cc2oc3ccccc3c21 -7%
COc1cc(C(=O)N2CCN(c3ccc(Nc4ccc(C)cc4)nn3)CC2)cc(OC)c1OC -19.6%
COC(=O)Cn1nc(C)c2c(C)n(-c3ccccc3)nc2c1=O -0.992%
CCCN1C(=O)c2[nH]nc(-c3ccccc3O)c2C1c1ccc(OCc2ccccc2)c(OC)c1 (configuration not stated) 8.51%
CN1CCc2c(n(Cc3ccc(C(=O)NO)cc3)c3ccccc23)C1 -8.14%
Cc1nn(Cc2ccccc2Cl)c(C)c1NC(=O)c1cc(C(C)C)on1 -0.939%
CCC1CCCCN1C(=O)Cn1c(=O)oc2cc(S(=O)(=O)N3CCCCC3)ccc21 (configuration not stated) 0.842%
O=C(NCCc1ccccc1)c1sc2ncccc2c1-n1cccc1 -0.475%
CCCc1cnc2c(c1SCC(=O)N1CCC(C)CC1)c(=O)n(C)c(=O)n2C 11%
CCOC(=O)c1ccc(NC(=O)Cn2c(=O)cc(C)c3c(C)nn(-c4cccc(F)c4)c32)cc1 -5.9%
Cc1ccc(NC(=O)c2cc3cc(C)ccc3n2C)cc1 2.17%
NC(=O)CSc1oc(-c2ccco2)nc1S(=O)(=O)c1ccc(Cl)cc1 -8.24%
O=C(Nc1nc2n(n1)C(c1ccc(F)cc1)C=C(c1ccccc1)N2)c1ccc(Cl)cc1 (configuration not stated) 4.06%
Cc1ccc(NC(=O)C(Cc2ccccc2)NS(=O)(=O)c2ccc3c(c2)oc(=O)n3C)cc1F (configuration not stated) -4.7%
O=C(CSc1nncn2c1cc1sccc12)Nc1ccc(Br)cc1F -12.7%
CCOC(=O)c1c(C)oc2nc(C)nc(NCc3ccc(OC)cc3OC)c12 -2.66%
CCc1ccccc1NC(=O)c1sc2nc3c(cc2c1N)CN(Cc1ccccc1)CC3 -16.4%
O=C(Nc1cc(C(F)(F)F)ccc1Cl)c1nc2ccccc2nc1N1CCCCC1 -1.94%
CCCCNC(=O)C1CCC(Cn2c(=O)c3sccc3n(CC(=O)N3CCCC3)c2=O)CC1 (configuration not stated) -6.66%
Clc1cccc(-n2ncc3c(N4CCC(Cc5ccccc5)CC4)ncnc32)c1 3.29%
CCc1ccc(NC(=O)CCn2nc(C)c(S(=O)(=O)N3CCCCC3)c2C)cc1 -6.9%
O=C(Cn1c(=O)nc(-c2ccccc2)c2ccccc21)NCc1ccc(Cl)cc1 0.358%
COc1cc(C2C(C(=O)Nc3ccccc3C)=C(C)Nc3ncnn32)ccc1OCC(N)=O (configuration not stated) -6.33%
O=C(NCC(c1ccc2c(c1)OCO2)N1CCOCC1)c1cccc(Cl)c1 (configuration not stated) -2.66%
CCOC(=O)c1ccccc1NC(=O)Cn1c(=O)n(-c2cccc(C)c2)c(=O)c2c1c1cc(C)ccc1n2C -15.2%
COc1ccc2c(C)cc(SCC(=O)Nc3nsc(-c4ccccc4C)n3)nc2c1 -9.52%
COc1cccc(N2CCN(S(=O)(=O)c3ccc(-n4cnnn4)cc3)CC2)c1 1.12%
CCOc1ccccc1NC(=O)C1CCN(S(=O)(=O)c2ccc3c(c2)CC(C)N3C(C)=O)CC1 (configuration not stated) 2.39%
O=C(NCc1ccc(Cl)cc1)C(=O)NCC(c1cccs1)S(=O)(=O)c1cccs1 (configuration not stated) -3.76%
Nc1ccc(N2CCN(c3ncc(C(F)(F)F)cc3Cl)CC2)c(C(F)(F)F)c1 6.55%
O=C(CCn1cnnn1)Nc1ccc(F)cc1 27.8%
Cc1oc(C)c2c(=O)cc(-c3ccc4c(c3)OCO4)cc(OC(=O)c3cccc(Br)c3)c12 5.45%
COCC(=O)NCc1nc2cccnc2n1Cc1ccc(F)cc1 -1.53%
CN(c1ccccc1)S(=O)(=O)c1ccc(NC(=O)c2cc(=O)c3ccccc3o2)cc1 -1.58%
Cc1ccc(NC(=O)CSc2ccc(-c3cccs3)nn2)cc1Cl 0.391%
Cc1noc(-c2ccc(N3CCCCC3)c([N+](=O)[O-])c2)n1 -18.9%
Cc1cc(NC(=O)c2cccc(Cl)c2)ccc1-c1cc2ccccc2oc1=O 5.03%
Cc1ccc(Cn2c(CNS(=O)(=O)c3ccc(F)c(Cl)c3)nc3cccnc32)cc1 2.8%
COc1ccc(-n2ncc(C(=O)NCCc3ccsc3)c2C2CCN(C(=O)OC(C)(C)C)CC2)cc1 -28.6%
COc1cc2c(cc1OC)C(COc1ccccc1OC)N(C(=O)COc1ccc(Cl)cc1)CC2 (configuration not stated) 11.8%
Cc1ccc(CCNC(=O)c2ccc3c(c2)nc2n3CCC(C)C2)cc1 (configuration not stated) -3.65%
COc1ccc(OC)c(CNC(=O)Cc2ccc(NC(=O)N3CCSc4ncccc43)cc2)c1 0.161%
O=C(C1CCN(c2ncnc3c2nc2n3CCCCC2)CC1)N1CCN(c2cccc(Cl)c2)CC1 -29.8%
O=C1CS(=O)(=O)C2(C(=O)N(Cc3ccccc3)c3ccccc32)N1c1ccccc1 (configuration not stated) 7.29%
Cc1cn[nH]c1 2.09%
Cc1ccc(CNS(=O)(=O)c2ccc3[nH]c4c(c3c2)CCCC4)cc1 -2.54%
CCCCc1nn2c(=O)cc(COC(=O)c3ccc(NC(=O)c4ccccc4C)cc3)nc2s1 2.85%
CCOC(=O)C1(C)C=C(Nc2cccc(C(=O)O)c2)C(=O)N1c1cccc(C(=O)O)c1 (configuration not stated) -2.63%
COc1ccc(-c2noc(-c3ccc(N4CCN(c5ccccc5)CC4)c([N+](=O)[O-])c3)n2)cc1OC -5.33%
Cc1cc(C)n(CCc2nc3c4ccccc4nc(N4CCN(c5ccccc5)CC4)n3n2)n1 -8.63%
CNC(=O)c1ccc(CSc2nc3cccnc3n2Cc2cccc(F)c2)cc1 -4.88%
CCc1ccc(-c2nc(SCC(=O)NCC3CCCO3)c(-c3ccc(F)cc3)[nH]2)cc1 (configuration not stated) -3.27%

outcome, inactive:
CCCc1cc(=O)[nH]c2nnc(SC(C)CC)n12 (configuration not stated)
CCc1ccc2ncc3c(-c4ccccc4)nn(-c4ccccc4)c3c2c1
O=C(CCCCn1c(=O)c2ccccc2n(Cc2ccccc2Cl)c1=O)NCCc1ccccc1
CCCN(CCC)C(=O)Cn1c(=O)n(-c2cccc(OC)c2)c(=O)c2c3c(sc21)CCCC3
Cc1ccc(NC(=O)C2CCCN(c3nnc(-n4c(C)ccc4C)s3)C2)c(C)c1 (configuration not stated)
O=C(NCCc1ccccc1)c1ccc2c(c1)N(Cc1c(F)cccc1Cl)C(=O)CS2
Cc1nc(-c2cccc(NC(=O)Nc3ccc([N+](=O)[O-])cc3)c2)no1
CCCc1cc(=O)oc2c3c(ccc12)OCN(Cc1ccc(OC)cc1)C3
Cc1ccc(C(=O)Nc2cccc(OCc3cc(=O)n4c5c(sc4n3)CCCC5)c2)cc1
COc1cccc2c1cc1c(=O)n(CC(=O)NC3CCCCC3)nc(C)n12
Cc1cc(C)cc(NC(=O)C(=O)NCC(c2cccnc2)N2CCc3ccccc3C2)c1 (configuration not stated)
CCOc1ccc(Cn2c(CNS(=O)(=O)c3ccc(Cl)s3)nc3cccnc32)cc1
COc1ccc(Nc2cc(C(=O)NCCCN3CCN(c4ccc(OC)cc4)CC3)c3ccccc3n2)cc1
Cc1cc(F)ccc1NS(=O)(=O)c1ccc(-n2cccn2)cc1
COc1cccc(CNC(=O)C2CCCCN2S(=O)(=O)c2ccc(F)cc2)c1 (configuration not stated)
N#Cc1ccc(NC(=O)c2cc(-c3cccc(Cl)c3)on2)cc1
